Experimental data: the GPR68 mutational scans of Howard et al. (2025)

B1: GPR68, Q15743 (parent)
chain: MGNITADNSSMSCTIDHTIHQTLAPVVYVTVLVVGFPANCLSLYFGYLQIKARNELGVYLCNLTVADLFYICSLPFWLQYVLQHDNWSHGDLSCQVCGILLYENIYISVGFLCCISVDRYLAVAHPFRFHQFRTLKAAVGVSVVIWAKELLTSIYFLMHEEVIEDENQHRVCFEHYPIQAWQRAINYYRFLVGFLFPICLLLASYQGILRAVRRSHGTQKSRKDQIQRLVLSTVVIFLACFLPYHVLLLVRSVWEASCDFAKGVFNAYHFSLLLTSFNCVADPVLYCFVSETTHRDLARLRGACLAFLTCSRTGRAREAYPLGAPEASGKSGAQGEEPELLTKLHPAFQTPNSPGSGGFPTGRLA

Columns and labels:
[1] = variants of: B1; assay: cAMP reporter score (Enrich2 score, wild type = 0); higher = more signal; HEK293T, FACS bins
[2] = variants of: B1; assay: surface expression score (Enrich2 score, wild type = 0); higher = more signal; HEK293T, FACS bins

Row | Variant | cAMP reporter score ([1]; pH 5.5) | cAMP reporter score ([1]; pH 6) | cAMP reporter score ([1]; pH 6, modulator: ogerin) | cAMP reporter score ([1]; pH 6.5, modulator: ogerin) | surface expression score [2]
1 | MGNITADNSSMSCTIDHTIHQTLAPVVYVTVLVVGFPANCLSLYFGYLQIKARNELGVYLCNLTVADLFYICSLPFWLQYVLQHDNWSHHDLSCQVCGILLYENIYISVGFLCCISVDRYLAVAHPFRFHQFRTLKAAVGVSVVIWAKELLTSIYFLMHEEVIEDENQHRVCFEHYPIQAWQRAINYYRFLVGFLFPICLLLASYQGILRAVRRSHGTQKSRKDQIQRLVLSTVVIFLACFLPYHVLLLVRSVWEASCDFAKGVFNAYHFSLLLTSFNCVADPVLYCFVSETTHRDLARLRGACLAFLTCSRTGRAREAYPLGAPEASGKSGAQGEEPELLTKLHPAFQTPNSPGSGGFPTGRLA [G90H] | 0.149 | -0.488 | -0.018 | 0.115 | 1.35
2 | MGNITADNSSMSCTIDHTIHQTLAPVVYVTVLVVGFPANCLSLYFGYLQIKARNELGVYLCNLTVADLFYICSLPFWLQYVLQHDNWSHEDLSCQVCGILLYENIYISVGFLCCISVDRYLAVAHPFRFHQFRTLKAAVGVSVVIWAKELLTSIYFLMHEEVIEDENQHRVCFEHYPIQAWQRAINYYRFLVGFLFPICLLLASYQGILRAVRRSHGTQKSRKDQIQRLVLSTVVIFLACFLPYHVLLLVRSVWEASCDFAKGVFNAYHFSLLLTSFNCVADPVLYCFVSETTHRDLARLRGACLAFLTCSRTGRAREAYPLGAPEASGKSGAQGEEPELLTKLHPAFQTPNSPGSGGFPTGRLA [G90E] | -0.449 | 0.511 | -1.08 | -0.951 | 0.359
3 | MGNITADNSSMSCTIDHTIHQTLAPVVYVTVLVVGFPANCLSLYFGYLQIKARNELGVYLCNLTVADLFYICSLPFWLQYVLQHDNWSHDDLSCQVCGILLYENIYISVGFLCCISVDRYLAVAHPFRFHQFRTLKAAVGVSVVIWAKELLTSIYFLMHEEVIEDENQHRVCFEHYPIQAWQRAINYYRFLVGFLFPICLLLASYQGILRAVRRSHGTQKSRKDQIQRLVLSTVVIFLACFLPYHVLLLVRSVWEASCDFAKGVFNAYHFSLLLTSFNCVADPVLYCFVSETTHRDLARLRGACLAFLTCSRTGRAREAYPLGAPEASGKSGAQGEEPELLTKLHPAFQTPNSPGSGGFPTGRLA [G90D] | 0.74 | -0.456 | 0.145 | -0.198 | 0.409
4 | MGNITADNSSMSCTIDHTIHQTLAPVVYVTVLVVGFPANCLSLYFGYLQIKARNELGVYLCNLTVADLFYICSLPFWLQYVLQHDNWSHFDLSCQVCGILLYENIYISVGFLCCISVDRYLAVAHPFRFHQFRTLKAAVGVSVVIWAKELLTSIYFLMHEEVIEDENQHRVCFEHYPIQAWQRAINYYRFLVGFLFPICLLLASYQGILRAVRRSHGTQKSRKDQIQRLVLSTVVIFLACFLPYHVLLLVRSVWEASCDFAKGVFNAYHFSLLLTSFNCVADPVLYCFVSETTHRDLARLRGACLAFLTCSRTGRAREAYPLGAPEASGKSGAQGEEPELLTKLHPAFQTPNSPGSGGFPTGRLA [G90F] | -0.872 | -2.38 |  | 0.545 | -1.23

The least precise scores are not listed. The source holds two more conditions with little spread; they are left out. Read del as a deletion of the residues named and ins as an insertion between two positions. For some of these results: The concentration of ogerin is not given here.
